Results reported in PMC3390797, “Regulation of ASIC channels by a stomatin/STOML3 complex located in a mobile vesicle pool in sensory neurons” (Open Biology, 2012).
These are yes or no findings as the source states them, for the method shown. In cells and extracts the contact can be indirect. Some entries that bind do so weakly or less than the wild type. Tags and fused reporters may be left off the sequences shown.

T1: STOML3Δ1–50 (Strep-tagged, CFP-tagged) (mouse) (UniProt Q6PE84)
T1 sequence: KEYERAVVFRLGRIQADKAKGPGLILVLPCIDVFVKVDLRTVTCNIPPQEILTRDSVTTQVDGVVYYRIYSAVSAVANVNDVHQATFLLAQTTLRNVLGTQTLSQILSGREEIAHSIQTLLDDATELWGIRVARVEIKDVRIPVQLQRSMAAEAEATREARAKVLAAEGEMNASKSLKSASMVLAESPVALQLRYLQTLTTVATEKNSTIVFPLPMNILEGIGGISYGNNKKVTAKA

T2: STOML3Δ129–287 (Strep-tagged, CFP-tagged) (mouse) (UniProt Q6PE84)
T2 sequence: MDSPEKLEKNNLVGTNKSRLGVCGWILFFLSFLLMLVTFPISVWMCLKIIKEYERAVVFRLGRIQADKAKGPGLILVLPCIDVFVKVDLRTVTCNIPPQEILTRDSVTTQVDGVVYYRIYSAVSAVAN

T3: P40S STOML3 mutant protein (Strep-tagged, CFP-tagged) (mouse) (UniProt Q6PE84)
T3 sequence: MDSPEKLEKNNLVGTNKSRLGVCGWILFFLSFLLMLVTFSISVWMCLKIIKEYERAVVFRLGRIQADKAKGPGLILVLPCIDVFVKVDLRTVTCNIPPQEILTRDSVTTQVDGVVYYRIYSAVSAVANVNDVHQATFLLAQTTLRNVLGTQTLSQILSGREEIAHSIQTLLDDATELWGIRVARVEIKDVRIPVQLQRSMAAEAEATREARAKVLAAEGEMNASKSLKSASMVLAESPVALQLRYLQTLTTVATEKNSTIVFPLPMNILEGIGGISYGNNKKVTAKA

T4: STOML3-Δ1–128 (Strep-tagged, CFP-tagged) (mouse) (UniProt Q6PE84)
T4 sequence: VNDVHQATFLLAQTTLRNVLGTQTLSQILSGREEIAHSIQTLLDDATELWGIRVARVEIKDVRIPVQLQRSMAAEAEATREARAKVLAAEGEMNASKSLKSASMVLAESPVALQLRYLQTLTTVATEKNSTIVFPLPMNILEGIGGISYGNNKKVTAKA

T5: Strep-tagged STOML3-AmCyan1 (stomatin-like protein-3, wild type) (mouse) (UniProt Q6PE84)
T5 sequence: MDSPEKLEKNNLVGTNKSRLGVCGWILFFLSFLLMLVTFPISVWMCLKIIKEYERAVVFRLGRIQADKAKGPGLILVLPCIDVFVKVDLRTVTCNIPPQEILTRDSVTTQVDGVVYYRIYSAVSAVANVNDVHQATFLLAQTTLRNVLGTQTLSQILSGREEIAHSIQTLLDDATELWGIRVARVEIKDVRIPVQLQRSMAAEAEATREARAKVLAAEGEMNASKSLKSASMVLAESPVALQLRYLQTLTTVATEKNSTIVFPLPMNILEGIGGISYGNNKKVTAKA


Legend:
[1] = molecular target: T1, STOML3Δ1–50 (Strep-tagged, CFP-tagged) (mouse); assay: co-IP; CHO cells transiently transfected with STOML3-Strep and ASICx-Flag or stomatin-Myc (1:1), 48 h; lysed in RIPA buffer (50 mM Tris pH 7.4, 300 mM NaCl, 1 mM EDTA, 0.5% deoxycholic acid, 0.5% Triton-X100, 0.1% SDS, 1 mM DTT); anti-Strep antibody and Protein G agarose overnight; blot with anti-Flag or anti-Myc
[2] = molecular target: T2, STOML3Δ129–287 (Strep-tagged, CFP-tagged) (mouse); assay: as above
[3] = molecular target: T3, P40S STOML3 mutant protein (Strep-tagged, CFP-tagged) (mouse); assay: as above
[4] = molecular target: T4, STOML3-Δ1–128 (Strep-tagged, CFP-tagged) (mouse); assay: as above
[5] = molecular target: T5, Strep-tagged STOML3-AmCyan1 (stomatin-like protein-3, wild type) (mouse); assay: as above
[6] = molecular target: T1, STOML3Δ1–50 (Strep-tagged, CFP-tagged) (mouse); assay: FRET or BRET; three-cube FRET imaging of CHO cells co-expressing the AmCyan1 (CFP) and EYFP fusions; apparent FRET efficiency, calibrated with two fluorophore-tandem constructs
[7] = molecular target: T2, STOML3Δ129–287 (Strep-tagged, CFP-tagged) (mouse); assay: as above
[8] = molecular target: T3, P40S STOML3 mutant protein (Strep-tagged, CFP-tagged) (mouse); assay: as above
[9] = molecular target: T4, STOML3-Δ1–128 (Strep-tagged, CFP-tagged) (mouse); assay: as above

Binder	binding [1]	binding [2]	binding [3]	binding [4]	binding [5]	binding [6]	binding [7]	binding [8]	binding [9]
stomatin-Myc (protein, UniProt P54116 1-284) MSDKRQSSHVQSQRIPESFRENSKTELGACGWILVAASFFFVIITFPISIWICIKIVKEYERVIIFRLGRILQGGAKGPGLFFILPCTDSLIKVDMRTISFDIPPQEVLTKDSVTISVDGVVYYRVQNATLAVANITNADSATRLLAQTTLRNALGTKNLSQILSDREEIAHHMQSTLDDATDDWGIKVERVEIKDVKLPVQLQRAMAAEAEAAREARAKVIAAEGEMNASRALKEASMVITESPAALQLRYLQTLTTIAAEKNSTIVFPLPVDMLQGIMGSNH	no binding	no binding	no binding	no binding	binds	–	–	–	–
EYFP-stomatin (protein, UniProt P54116 1-284) MSDKRQSSHVQSQRIPESFRENSKTELGACGWILVAASFFFVIITFPISIWICIKIVKEYERVIIFRLGRILQGGAKGPGLFFILPCTDSLIKVDMRTISFDIPPQEVLTKDSVTISVDGVVYYRVQNATLAVANITNADSATRLLAQTTLRNALGTKNLSQILSDREEIAHHMQSTLDDATDDWGIKVERVEIKDVKLPVQLQRAMAAEAEAAREARAKVIAAEGEMNASRALKEASMVITESPAALQLRYLQTLTTIAAEKNSTIVFPLPVDMLQGIMGSNH	–	–	–	–	–	no binding	no binding	no binding	no binding
